Source: the RNAGym collection of RNA variant scans (doi:10.1073/pnas.2313332121)
Variants at the floor of the assay are shown more often than the library holds them.

B1: TPR 5TU (parent)
chain: GGAUCUUCUCGAUCUAACAAAAAAGACAAAUCUGCCACAAAGCUUGAGAGCAUCUUCGGAUGCAGAGGCGGCAGCCUUCGGUGGCGCGAUAGCGCCAACGUUCUCAACUAUGACACGCAAAACGCGUGCUCCGUUGAAUGGAGUUUAUCAUG

Variants of: B1
Assay: polymerase ribozyme fitness, log enrichment relative to wild type (log ratio); higher = more active; in vitro selection for triplet polymerase activity
In short: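 Libraries of mutants in each subunit of a heterodimeric triplet polymerase ribozyme were generated by PCR and transcribed. In triplicate, each went through one in vitro selection round: annealing with biotinylated primer, partner subunit and triplets; frozen incubation at −7 °C; gel excision of extended constructs; streptavidin-bead capture; RT-PCR. Fitness, taken from Illumina sequencing of input and output libraries, is the logarithm of a genotype's enrichment over wild-type enrichment, averaged across replicates with inverse-variance weights. The logarithm is base 2, and genotypes needed ≥10 input reads and ≥1 read per output to be kept.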

Row | Variant | polymerase ribozyme fitness (log ratio)
1 | G42A U44G G133A U144A | ≤ -4.2
2 | A41U C43U G59A U90G C116G C123U | ≤ -4.2
3 | G42C C95A A142C | ≤ -4.2
4 | A41U C57A C96A C108A G143A | ≤ -4.2
5 | C43A G83C U90G G140U | ≤ -4.2
6 | G42U A66C C95A G143A U144G | ≤ -4.2
7 | C43A G58C G59U G67U | ≤ -4.2
8 | G42A A73G C96A U102G A113U | ≤ -4.2
9 | G42C C51G G94C C95U A97U U102C U148G | ≤ -4.2
10 | G42C U44A C72U C75U C96A G136A | ≤ -4.2
11 | G42A C87A C99U C108A U151G | ≤ -4.2
12 | A41U U45A C85A | ≤ -4.2
13 | G42A A49C G84U A89G | ≤ -4.2
14 | G42A G50U U53A U55A G83A U90C U144A | ≤ -4.2
15 | G42C U45G U146C | ≤ -4.2
16 | G42C C54G G58C G94C C114G C129U | ≤ -4.2
17 | G42A U61G A66G G83A G88C | ≤ -4.2
18 | A41U G83U U90G C93G A106U | ≤ -4.2
19 | G42C A147G U151G | ≤ -4.2
20 | G42C U53G C75G C76A C85A U127C U144A | ≤ -4.2
21 | G42C U53G U145G | ≤ -4.2

Row | Variant | polymerase ribozyme fitness (log ratio)
22 | G42C U55A A60U C87U A115U | ≤ -4.2
23 | C43A G94C G143U | ≤ -4.2
24 | G42A C93U A120C G141U | ≤ -4.2
25 | G42U G83A A142G | ≤ -4.2
26 | G42A G62A G88A G141A | ≤ -4.2
27 | G42C C131G G141U | ≤ -4.2
28 | G42A G48A C76U C85A A106G C125G U127G G141A | ≤ -4.2
29 | G42A C69A G81U C87U C95G G140U | ≤ -4.2
30 | G42A A91C | ≤ -4.2
31 | G42A C69U C87G | ≤ -4.2
32 | G42A C96G U111G A122U | ≤ -4.2
33 | A41U C72A U77A C99A U139C U144A | ≤ -4.2
34 | G42A C51G C75G C99U | ≤ -4.2
35 | C43A C96A U101G A150U | -4.16
36 | G42A U78G C95U G112C | ≤ -4.2
37 | G42A G46U G94A A115U U148C | ≤ -4.2
38 | G42A C87A | ≤ -4.2
39 | C43A A49U A60G C85U | ≤ -4.2
40 | G42C C95A C99G A107U | ≤ -4.2
41 | G42C C85G C123U | ≤ -4.2
42 | C43A C87G C132A | ≤ -4.2

Row | Variant | polymerase ribozyme fitness (log ratio)
43 | G42A A47C U56G A89G U127A G140A | ≤ -4.2
44 | G42A U55A U56G A60U G133U U144A | ≤ -4.2
45 | C43A C54G G88A U111G G133U A137C | ≤ -4.2
46 | A41U U45A C79A C87A | ≤ -4.2
47 | A41U G84A G86A A120G G124U G128U | ≤ -4.2
48 | G42C G84C C85A G86A G92C | ≤ -4.2
49 | G42A U53G U55A G83C C85U A107U C108U G112U A142G | ≤ -4.2
50 | G42A G50A G59U G67C G94U C105A G136U | ≤ -4.2
51 | G42U C54U C75G G86U A91G C96A C125A | ≤ -4.2
52 | G42A A66G G92U C108U G136A G140U G141U | ≤ -4.2
53 | G42C U55G U56C C69U C95G A142U U145C A150U | ≤ -4.2
54 | G42A G50U C96A C103A U127G | ≤ -4.2
55 | G42A U61G A138C | ≤ -4.2
56 | G42A A60G C87G | ≤ -4.2
57 | G42C A49U C63U | -4.12
58 | G42A U56A C93U | ≤ -4.2
59 | G42C C43U C54U A89C G94C A137U | ≤ -4.2
60 | C43A U44A A91U G141U A150C | ≤ -4.2
61 | G42C G62U C123G G124C | ≤ -4.2
62 | C43A G84C | ≤ -4.2
63 | G42C C76G C85U | ≤ -4.2

Row | Variant | polymerase ribozyme fitness (log ratio)
64 | G42U G59U G92U G126A U135A U144A | ≤ -4.2
65 | A41U C43G U102G | ≤ -4.2
66 | G42C U61A U77G G86C U134G G140C | ≤ -4.2
67 | A41U A91U | ≤ -4.2
68 | G42C G58C A91G A107C A113G | ≤ -4.2
69 | G42C U55A A73U G83C G84A G88U | ≤ -4.2
70 | G42C U55A C76G C85G U90C A97U U102C | ≤ -4.2
71 | C43A G58C C72U G94U U102C U139A | ≤ -4.2
72 | G42A C93A U102G U135A | ≤ -4.2
73 | C43A C54G G74C A89C A115G | ≤ -4.2
74 | A41U G124U | -0.896
75 | G42U A52G U55A C95U | ≤ -4.2
76 | G42A A52C U56A C72U G74U C75U C99G U134C | ≤ -4.2
77 | G42C C131G | ≤ -4.2
78 | C43A C57G C69A A91U A138G G143U | ≤ -4.2
79 | A41U A49C C85G G88U U102C A137U G141A | ≤ -4.2
80 | G42C G94A G143A | ≤ -4.2
81 | A41U U45A U53C A122U C125A | ≤ -4.2
82 | G42A C51U A121U | ≤ -4.2
83 | C43A G80C | ≤ -4.2
84 | A41U G50A A66C G84U A120U C125G G126U | ≤ -4.2
